Drawing on the supplement of paper PMC9446081, this text covers relative growth for 40 compounds.

The campaign covered roughly 39,000 compounds. About 220 (0.56%) showed activity. This is one part of the list.
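Note: static incubation at 37 °C against the wild-type strain, values averaged over two biological replicates.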

This experiment relates to Escherichia coli K-12 BW25113. Nature of the experiment: relative growth (OD600 normalised to plate interquartile mean) (fraction); higher = less growth inhibition, active = 0.2 or less. The conditions noted are these: 50 µM; LB; incubation time: overnight (16-24 h).
As to `COc1ccc(C#Cc2ccc3c(c2)[C@]2(C(=O)N3)[C@H](C(=O)N3CCc4cc(OC)c(OC)cc4C3)[C@H]3C(=O)O[C@H](c4ccccc4)[C@H](c4ccccc4)N3[C@@H]2c2ccccc2OCCO)cc1`, the relative growth was inactive: 1.02.

Regarding `O=c1n(-c2ccccc2)c(=O)n2n1CC(COc1ccccc1)=C1[C@@H](CCc3ccccc3)OB(O)C[C@@H]12`, the relative growth is inactive: 1.

Take `CC1=NN(c2ccccc2)C(=O)C1`: the relative growth is inactive: 0.929.

With `C[C@H]1CN([C@@H](C)CO)C(=O)c2cc(NS(C)(=O)=O)ccc2O[C@H]1CN(C)S(C)(=O)=O`, the relative growth is inactive: 0.984.

In the case of `Cc1noc(C)c1S(=O)(=O)Nc1ccc2c(c1)C(=O)N([C@@H](C)CO)C[C@H](C)[C@H](CN(C)Cc1ccc(C(=O)O)cc1)O2`, the relative growth was inactive: 0.962.

Take `CCCNC(=O)N1C[C@@H](O)COC[C@H]2O[C@@H](CC(=O)NCc3ccncn3)CC[C@@H]21`: the relative growth was inactive: 1.

`O=C(CNc1ccc2c(c1)oc1ccccc12)c1ccc(F)cc1`: the relative growth was inactive: 0.997.

Take `CC(C)NC(=O)N1Cc2cc(C(=O)NC3CCCCC3)nc(-c3cccc(-c4cccnc4)c3)c2[C@H]1CCO`: the relative growth was inactive: 0.968.

Regarding `COc1ccc(S(=O)(=O)N(C)C[C@H]2Oc3ccc(NC(=O)Nc4cccc5ccccc45)cc3C(=O)N([C@H](C)CO)C[C@@H]2C)cc1`, the relative growth was inactive: 0.997.

For `C[C@@H]1CN([C@@H](C)CO)C(=O)Cc2cc(NC(=O)Nc3cccc4ccccc34)ccc2O[C@@H]1CN(C)Cc1ccc(-c2ccccc2)cc1`, the relative growth is inactive: 1.03.

Turning to `O=C(C[C@H]1CC=CC[C@H](Cc2ccc(F)cc2)C(=O)OC[C@@H](Cc2c[nH]c3ccccc23)NC1=O)NCCO`, the relative growth was inactive: 0.986.

`COc1ccc(S(=O)(=O)Nc2ccc3c(c2)CC(=O)N([C@@H](C)CO)C[C@H](C)[C@@H](CN(C)Cc2ccc(C(=O)O)cc2)O3)cc1`: the relative growth was inactive: 1.

With `C[C@H]1CN([C@@H](C)CO)C(=O)c2cccc(NC(=O)C3CC3)c2O[C@@H]1CN(C)Cc1ccc2c(c1)OCO2`, the relative growth is inactive: 0.728.

For the compound `Cc1noc(C)c1NC(=O)Nc1ccc2c(c1)C(=O)N([C@@H](C)CO)C[C@@H](C)[C@@H](CN(C)Cc1ccccc1)OCCCC[C@@H](C)O2`, the relative growth is inactive: 1.01.

Consider `C[C@H](CO)N1C[C@H](C)[C@H](CN(C)Cc2ccccc2)Oc2ccc(NC(=O)Nc3cccc4ccccc34)cc2C1=O`, for which the relative growth is inactive: 0.986.

As to `Cc1ccc(S(=O)(=O)[N-]Cl)cc1.[Na+]`, the relative growth was inactive: 1.05.

As for `C[C@@H]1CN([C@@H](C)CO)S(=O)(=O)c2ccc(-c3cccc(C#N)c3)cc2O[C@@H]1CN(C)C(=O)c1cccnc1`, the relative growth is inactive: 0.987.

Regarding `NCCN1CCC[C@H](C(N)=O)C1`, the relative growth was inactive: 1.

Take `C[C@@H]1CCCCO[C@@H](CN(C)S(C)(=O)=O)[C@H](C)CN([C@@H](C)CO)C(=O)c2cc(NS(C)(=O)=O)ccc2O1`: the relative growth is inactive: 1.01.

With `Nc1ncnc(NC[C@H]2CCCO2)c1[N+](=O)[O-]`, the relative growth was inactive: 0.982.

Consider `C[C@@H]1CCCCO[C@H](CN(C)S(=O)(=O)c2ccccc2)[C@H](C)CN([C@H](C)CO)C(=O)c2cc(NC(=O)Nc3ccc(C(F)(F)F)cc3)ccc2O1`, for which the relative growth was inactive: 0.997.

In the case of `CC[C@@H](C)NC(=O)Cn1cnc2c1c(=O)n(C)c(=O)n2C`, the relative growth is inactive: 0.949.

Consider `C[C@@H]1CN([C@@H](C)CO)C(=O)c2cc(NC(=O)Nc3ccccc3)ccc2O[C@H]1CN(C)Cc1ccc(Cl)c(Cl)c1`, for which the relative growth was inactive: 0.994.

As to `Cc1ccc(S(=O)(=O)N(C)C[C@@H]2OCCCC[C@@H](C)Oc3ccc(NC(=O)CCC(F)(F)F)cc3C(=O)N([C@H](C)CO)C[C@H]2C)cc1`, the relative growth was inactive: 1.01.

`C[C@@H]1CCCCO[C@@H](CN(C)CC2CC2)[C@H](C)CN([C@@H](C)CO)C(=O)c2cc(NC(=O)NC3CCCCC3)ccc2O1`: the relative growth was inactive: 1.02.

`NC(=O)NCC#Cc1ccc2c(c1)[C@]1(C(=O)N2)[C@H](C(N)=O)[C@H]2C(=O)O[C@H](c3ccccc3)[C@H](c3ccccc3)N2[C@@H]1c1ccccc1OCCO`: the relative growth is inactive: 1.05.

On to `Cc1nc(C(N)=O)c(N)n1CCO`, for which the relative growth was inactive: 0.995.

As for `Cc1cccc(S(=O)(=O)N2C[C@H](O)COC[C@@H]3O[C@@H](CC(=O)NCc4ccc5c(c4)OCO5)CC[C@H]32)c1`, the relative growth is inactive: 1.01.

As for `Cc1noc(C)c1NC(=O)N(C)C[C@H]1Oc2c(NC(=O)c3ccncc3)cccc2C(=O)N([C@@H](C)CO)C[C@@H]1C`, the relative growth was inactive: 0.98.

Consider `Cc1noc(C)c1NC(=O)Nc1ccc2c(c1)C(=O)N([C@@H](C)CO)C[C@H](C)[C@H](CN(C)C(=O)Nc1ccccc1)OCCCC[C@H](C)O2`, for which the relative growth is inactive: 0.98.

For `COc1ccc(CN(C)C[C@@H]2OCCCC[C@@H](C)Oc3ccc(NC(=O)c4ccncc4)cc3C(=O)N([C@H](C)CO)C[C@@H]2C)cc1`, the relative growth was inactive: 0.99.

Turning to `C[C@H](CO)N1C[C@H](C)[C@@H](CN(C)C(=O)CCC(F)(F)F)OCCCC[C@H](C)Oc2ccc(NC(=O)NC3CCCCC3)cc2C1=O`, the relative growth was inactive: 0.998.

In the case of `Cn1cnc2c1c(=O)[nH]c(=O)n2C`, the relative growth is inactive: 1.01.

On to `C[C@@H]1CN([C@H](C)CO)C(=O)CCCn2nncc2CO[C@@H]1CN(C)S(=O)(=O)c1cn(C)cn1`, for which the relative growth was inactive: 1.

In the case of `C[C@H](CO)N1C[C@H](C)[C@@H](CN(C)C(=O)Nc2ccccc2)OCCCC[C@H](C)Oc2ccc(NC(=O)c3ccncc3)cc2C1=O`, the relative growth is inactive: 0.993.

As for `CC(C)CCCC(C)NC(C)C.Cl` (stereo not given), the relative growth was inactive: 1.06.

In the case of `CN1C(=O)C[C@@H]2[C@@H]1CCN2C(=O)c1csnn1`, the relative growth is inactive: 0.997.

For the compound `CC1(C)CCC(c2ccc(Cl)cc2)=C(CN2CCN(c3ccc(C(=O)NS(=O)(=O)c4ccc(N[C@@H](CCN5CCOCC5)CSc5ccccc5)c(S(=O)(=O)C(F)(F)F)c4)cc3)CC2)C1`, the relative growth was inactive: 0.999.

Consider `C[C@@H](O)CCCCn1c(=O)c2c(ncn2C)n(C)c1=O`, for which the relative growth is inactive: 1.01.

Take `C[C@H]1CCCCO[C@@H](CN(C)S(=O)(=O)c2ccc(F)cc2)[C@@H](C)CN([C@@H](C)CO)C(=O)c2cc(NC(=O)Nc3cccc4ccccc34)ccc2O1`: the relative growth was inactive: 1.03.
